Experimental data from the supplement of paper PMC4967469.
Lines with a small IC50 respond at low doses; a fit beyond the top or the lowest dose is shown as a bound at that dose. The AUC spans the tested range (256-fold, ending at the top dose) of the same fit; values near 1 show little effect. Any top dose called inferred is not printed in the source and was worked back from the curve model. For part of these data: An entry number marks a drug with two screens in the source, which often give different values.

Experiments:
Assay in all cases: Viability of human cancer cell lines after 72 h of drug (GDSC screen)
[1] = compound: CNC(=O)c1ccc(Nc2cc(Nc3ccccc3S(=O)(=O)C(C)C)c3cc[nH]c3n2)nc1 [HG-5-113-01]; settings: top dose 10 µM; top dose inferred
Protocol: (§1)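 Human cancer cell lines in 384-well plates, medium with 10% serum, drug for 72 h over a 256-fold dose range (nine 2-fold or five 4-fold steps up to the top dose). Adherent lines were fixed and stained with the nucleic acid dye Syto60, suspension lines read with resazurin; signal relative to control wells, capped at 0 and 100%. One two-parameter sigmoid per drug and line, fitted in a mixed model over all curves with the slope shared within a line.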

[2] = compound: COc1cc(-c2nn([C@H]3CC[C@H](N4CCN(C(C)=O)CC4)CC3)c3ncnc(N)c23)ccc1NC(=O)c1cc2ccccc2n1C [A-770041]; settings: top dose 5.12 µM; top dose inferred
Protocol: as §1

[3] = compound: NC(=O)c1ccc(N(C(N)=O)c2c(F)cccc2F)nc1-c1ccc(F)cc1F [VX-702]; settings: top dose 2 µM; top dose inferred
Protocol: as §1

[4] = compound: O=C(c1cc(Cc2n[nH]c(=O)c3ccccc23)ccc1F)N1CCN(C(=O)C2CC2)CC1 [Olaparib]
Protocol: as §1

[5] = compound: O=C1NC(=O)c2c1c(-c1ccccc1Cl)cc1[nH]c3ccc(O)cc3c21 [Wee1 inhibitor 681640]; settings: top dose 2 µM; top dose inferred
Protocol: as §1

[6] = compound: CCNc1cc(NC2CCC(O)CC2)nc(Nc2ccc3c(ccn3Cc3ccccc3)c2)n1 [CGP-082996 (CINK4)]; settings: top dose 5.12 µM; top dose inferred
Protocol: as §1

[7] = compound: Cc1cc(N2CCOCC2)cc2[nH]c(-c3c(NC[C@@H](O)c4cccc(Cl)c4)cc[nH]c3=O)nc12 [BMS-536924]
Protocol: as §1

[8] = compound: Cc1cccc(-c2[nH]c(C(C)(C)C)nc2-c2ccc3nccnc3c2)n1 [SB-525334]; settings: top dose 20 µM; top dose inferred
Protocol: as §1

[9] = compound: COc1cc(N2CCN(C)CC2)ccc1Nc1ncc2c(n1)N(C)c1ccccc1C(=O)N2C [XMD8-85]; settings: top dose 8 µM; top dose inferred
Protocol: as §1

[10] = compound: Cc1ccc(-n2nc(C(C)(C)C)cc2NC(=O)Nc2ccc(OCCN3CCOCC3)c3ccccc23)cc1 [BIRB 0796]; settings: top dose 10 µM; top dose inferred
Protocol: as §1

[11] = compound: CC(C)=CC[C@@H](O)C1=CC(=O)c2c(O)ccc(O)c2C1=O [Shikonin]; settings: top dose 16 µM; top dose inferred
Protocol: as §1

[12] = top dose 5 µM, screen: GDSC drug entry 1017, top dose inferred
[13] = top dose 10 µM, screen: GDSC drug entry 1495
[14] = top dose 4 µM, screen: GDSC drug entry 1091, top dose inferred
[15] = top dose 5.12 µM, screen: GDSC drug entry 62

Cell Line | AUC [1] | IC50 [1] [µM] | AUC [2] | IC50 [2] [µM] | AUC [3] | IC50 [3] [µM] | AUC [4, 12] | IC50 [4, 12] [µM] | AUC [4, 13] | IC50 [4, 13] [µM] | AUC [5] | IC50 [5] [µM] | AUC [6] | IC50 [6] [µM] | AUC [7, 14] | IC50 [7, 14] [µM] | AUC [7, 15] | IC50 [7, 15] [µM] | AUC [8] | IC50 [8] [µM] | AUC [9] | IC50 [9] [µM] | AUC [10] | IC50 [10] [µM] | AUC [11] | IC50 [11] [µM]
SW684 (fibrosarcoma, adherent) | 0.924 | > 10 | 0.892 | > 5.12 | 0.98 | > 2 | 0.982 | > 5 | 0.977 | > 10 | 0.974 | > 2 | 0.981 | > 5.12 | 0.977 | > 4 | 0.969 | > 5.12 | 0.983 | > 20 | 0.972 | > 8 | 0.981 | > 10 | 0.51 | 1.08
TE-1 (oesophagus, adherent) | 0.722 | 3.21 | 0.687 | 1.24 | 0.974 | > 2 | 0.979 | > 5 | 0.978 | > 10 | 0.922 | > 2 | 0.908 | > 5.12 | 0.858 | > 4 | 0.62 |  | 0.978 | > 20 | 0.874 | > 8 | 0.982 | > 10 | 0.716 | 4.86
TE-5 (oesophagus, adherent) | 0.846 | 9.01 | 0.931 | > 5.12 | 0.984 | > 2 | 0.984 | > 5 | 0.954 | > 10 | 0.98 | > 2 | 0.967 | > 5.12 | 0.981 | > 4 | 0.914 | > 5.12 | 0.964 | > 20 | 0.873 | > 8 | 0.982 | > 10 | 0.517 | 1.12
TE-8 (oesophagus, adherent) | 0.721 | 2.79 | 0.478 | 0.277 | 0.984 | > 2 | 0.975 | > 5 | 0.898 | > 10 | 0.929 | > 2 | 0.896 | > 5.12 | 0.824 | 2.61 | 0.576 | 0.524 | 0.948 | > 20 | 0.977 | > 8 | 0.981 | > 10 | 0.473 | 0.842
TE-9 (oesophagus, adherent) | 0.757 | 3.57 | 0.922 | > 5.12 | 0.987 | > 2 | 0.987 | > 5 | 0.954 | > 10 | 0.927 | > 2 | 0.943 | > 5.12 | 0.919 | > 4 | 0.793 | 2.45 | 0.987 | > 20 | 0.894 | > 8 | 0.966 | > 10 | 0.349 | 0.375
TE-12 (oesophagus, suspension) | 0.775 | 4.86 | 0.542 | 0.427 | 0.977 | > 2 | 0.978 | > 5 | 0.975 | > 10 | 0.932 | > 2 | 0.785 | 2.72 | 0.788 | 2.19 | 0.429 | 0.196 | 0.967 | > 20 | 0.831 | 6.64 | 0.961 | > 10 | 0.532 | 1.24
TGBC1TKB (biliary tract, adherent) | 0.684 | 2.04 | 0.775 | 2.01 | 0.986 | > 2 | 0.989 | > 5 | 0.978 | > 10 | 0.965 | > 2 | 0.843 | 3.6 | 0.879 | > 4 | 0.791 | 2.28 | 0.963 | > 20 | 0.929 | > 8 | 0.986 | > 10 | 0.591 | 1.77
TGW (neuroblastoma, adherent) | 0.807 | 4.27 | 0.867 | 3.55 | 0.99 | > 2 | 0.992 | > 5 | 0.988 | > 10 | 0.946 | > 2 | 0.963 | > 5.12 | 0.892 | 3.53 | 0.647 | 0.764 | 0.833 | 10.4 | 0.975 | > 8 | 0.991 | > 10 | 0.389 | 
TK10 (kidney, adherent) | 0.763 | 4.32 | 0.604 | 0.656 | 0.975 | > 2 | 0.982 | > 5 | 0.98 | > 10 | 0.944 | > 2 | 0.883 | > 5.12 | 0.924 | > 4 | 0.745 | 1.9 | 0.965 | > 20 | 0.894 | > 8 | 0.981 | > 10 | 0.505 | 1.04
TUR (B-cell lymphoma, suspension) | 0.547 | 0.831 | 0.988 | > 5.12 | 0.966 | > 2 | 0.979 | > 5 | 0.972 | > 10 | 0.905 | > 2 | 0.986 | > 5.12 | 0.905 | > 4 | 0.986 | > 5.12 | 0.978 | > 20 | 0.919 | > 8 | 0.988 | > 10 | 0.425 | 0.633
